PMC4336329 (PLoS ONE, 2015)
About 14,000 (4.5%) of roughly 310,000 compounds showed an effect of 50% or more. Effects have a minus sign here. The list shows a part of the results.

These compounds were tested against human ether-à-go-go-related gene (hERG) potassium channel (human, UniProt Q12809) (assay: primary screen, population patch clamp on CHO cells stably expressing hERG).
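Further: peak tail current of the secondary pulse compared with the same well before compound.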

Sequence of human ether-à-go-go-related gene (hERG) potassium channel (Q12809 whole entry, looked up): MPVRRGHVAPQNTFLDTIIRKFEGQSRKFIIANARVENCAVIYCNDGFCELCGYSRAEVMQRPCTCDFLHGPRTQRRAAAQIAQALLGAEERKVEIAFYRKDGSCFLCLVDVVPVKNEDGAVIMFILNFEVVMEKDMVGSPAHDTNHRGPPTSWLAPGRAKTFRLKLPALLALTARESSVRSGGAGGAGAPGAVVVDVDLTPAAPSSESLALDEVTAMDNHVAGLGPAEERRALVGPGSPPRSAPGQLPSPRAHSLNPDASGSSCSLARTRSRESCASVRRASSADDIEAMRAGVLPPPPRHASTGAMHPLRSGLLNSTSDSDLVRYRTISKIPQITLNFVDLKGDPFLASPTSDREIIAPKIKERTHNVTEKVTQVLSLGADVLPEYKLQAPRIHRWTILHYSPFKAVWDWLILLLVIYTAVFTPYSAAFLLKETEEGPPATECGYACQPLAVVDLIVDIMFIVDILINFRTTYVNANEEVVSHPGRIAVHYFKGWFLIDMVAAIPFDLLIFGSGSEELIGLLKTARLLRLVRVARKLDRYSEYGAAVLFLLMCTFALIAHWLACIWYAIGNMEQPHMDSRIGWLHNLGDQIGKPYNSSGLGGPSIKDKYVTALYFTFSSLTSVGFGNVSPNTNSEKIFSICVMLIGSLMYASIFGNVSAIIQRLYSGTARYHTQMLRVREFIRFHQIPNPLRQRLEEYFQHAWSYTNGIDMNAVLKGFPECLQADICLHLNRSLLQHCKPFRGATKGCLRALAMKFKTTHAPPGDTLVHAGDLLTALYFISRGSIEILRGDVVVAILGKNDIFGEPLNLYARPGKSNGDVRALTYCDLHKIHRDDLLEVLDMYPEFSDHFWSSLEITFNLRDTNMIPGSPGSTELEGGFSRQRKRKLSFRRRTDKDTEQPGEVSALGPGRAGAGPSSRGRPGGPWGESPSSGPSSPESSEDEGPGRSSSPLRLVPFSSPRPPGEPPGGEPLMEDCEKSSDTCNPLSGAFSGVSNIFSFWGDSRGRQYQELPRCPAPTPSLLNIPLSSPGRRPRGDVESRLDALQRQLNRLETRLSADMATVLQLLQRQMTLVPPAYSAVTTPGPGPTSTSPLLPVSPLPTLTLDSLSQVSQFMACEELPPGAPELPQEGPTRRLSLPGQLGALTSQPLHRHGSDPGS

| SMILES | hERG current change (%, negative = inhibition) at 10uM [%] |
| --- | --- |
| Cc1cccc(N2CC(C(=O)Nc3nnc(SCCC4OCCO4)s3)CC2=O)c1 (centres unmarked) | 6.28 |
| O=C(C[n+]1ccc(/C=N/O)cc1)N1CCCCC1.[Cl-] | 9.49 |
| COc1ccc(C(=O)Nc2ccccc2C(=O)N(Cc2ccco2)C(C(N)=O)C(C)C)cc1 (centres unmarked) | 6.67 |
| Cc1oc(-c2cccs2)nc1CN1CCN(Cc2ccc(F)c(F)c2)C(CCO)C1 (centres unmarked) | -47.2 |
| COc1cc(-c2nc(C(=O)NC3CCN(Cc4ccccc4)CC3)cc3c2[nH]c2ccccc23)cc(OC)c1OC | -59.6 |
| N#Cc1c(Nc2ccc(Cl)cc2)s[nH]c1=O | -4.96 |
| CCN(CC)CCNC(=S)Nc1ccc2nc(N3CCOCC3)cc(C)c2c1 | 11.7 |
| CC(=O)N1c2ccccc2C(C)(C)C2CCC(C)CC21 (centres unmarked) | -8.9 |
| O=C(Nc1ccc(C(=O)O)cc1)/C(=C\c1ccco1)NC(=O)c1ccco1 | 21.3 |
| Cn1c2c(c(=O)n(C)c1=O)C(c1cccc(F)c1)C(C#N)=C(N)O2 (centres unmarked) | 17.7 |
| C=CCn1c(Cc2cccs2)nnc1SC/C=C/c1ccccc1 | -17.7 |
| CCN1CCN(CC(=O)N2c3ccccc3Sc3ccccc32)CC1 | 5.94 |
| COc1ccc(NC(C)=O)cc1NC(=O)CSc1nnc(C2CCCCC2)n1N | 8.83 |
| COc1ccc(NC(=O)c2ccsc2NC(C)=O)cc1 | 5.57 |
| O=C(CSc1nnc(CNC(=O)c2c(F)cccc2Cl)o1)NC1CCCC1 | 15.4 |
| O=C(CCCc1nc(-c2ccccc2Cl)no1)NC1CCCC1 | 5.52 |
| Cn1nnnc1Sc1ccc([N+](=O)[O-])cc1Cl | -5.36 |
| Cc1ccc(S(=O)(=O)NCc2ccc3c(c2)OCO3)cc1C | -10.4 |
| O=C(c1cc2cc(Cl)ccc2oc1=O)N1CCN(c2ccccn2)CC1 | -6.18 |
| Cc1ccc(C(=O)NCc2ccccn2)cc1NC1=NC2CS(=O)(=O)CC2S1 (centres unmarked) | 21.5 |
| COc1ccc(-c2cc3cc(OC)c(OC)cc3c(C)n2)cc1C | 2.93 |
| CC1CCN(C(=O)CCNS(=O)(=O)c2ccc(Br)cc2)CC1 | -13.4 |

| SMILES | hERG current change (%, negative = inhibition) at 10uM [%] |
| --- | --- |
| CC(C)N1C(=O)C2(OCCCO2)c2cc(Br)ccc21 | 29 |
| CN(Cc1ccccc1)C(=O)c1[nH]cnc1C(=O)Nc1ccc(Cl)cc1 | -0.308 |
| COc1ccccc1OCc1ccc(C(=O)NC(C)(C)C)o1 | 2.29 |
| CCOc1ccccc1-n1c(CNc2ccc(F)cc2)nnc1SCC(=O)NCc1ccco1 | -35.8 |
| Cc1cc2c(c(=O)n1CCc1ccccc1)C(c1ccco1)C(C#N)=C(N)O2 (centres unmarked) | 0.227 |
| CCOc1ccc(S(=O)(=O)Nc2cccc(C)c2)c2cccnc12 | 6.58 |
| CC(Sc1ccccc1)C(=O)NCCc1ccccc1 (centres unmarked) | 9.11 |
| O=C(CC12CC3CC(CC(C3)C1)C2)NCO | 5.89 |
| O=C(c1ccco1)N1CCN(CCOc2ccccc2)CC1 | 0.652 |
| Cn1c(SCC(=O)c2ccc3c(c2)OCCO3)nnc1C1CC1 | 7.59 |
| O=Cc1cn(-c2ccccc2)nc1-c1ccccc1 | 11.7 |
| O=C(O)CC/C(=C\c1ccc2c(c1)OCO2)c1nc2ccccc2s1 | 7.43 |
| CC(=O)Nc1ccc(/C=C2/Sc3ccccc3C2=O)cc1 | 30.8 |
| COc1ccc(-n2c(Cc3cccn3C)nnc2SCC(=O)Nc2cccc(Cl)c2)cc1 | -28.6 |
| Cc1ccc(NC(=O)C2CCN(C(=O)[C@@H]3Cc4ccccc4CN3)CC2)cc1 | -67.3 |
| O=C(CNC(=O)c1ccccc1F)N/N=C/c1cccs1 | 14.7 |
| Cc1noc(N)c1C(=O)Nc1ccc(C(C)(C)C)cc1 | -15 |
| CC(C)c1c(C(=O)N/N=C/C=C/c2ccccc2)nnn1-c1nonc1N | 20.6 |
| Cc1ccc(OCc2nnc(SCC(=O)C(C)(C)C)n2Cc2ccco2)cc1 | -38.9 |
| CC(=O)N1c2ccc(S(=O)(=O)NCCC(=O)Nc3ccc(C)c(F)c3)cc2CC1C (centres unmarked) | 3.97 |
| CC(=O)c1ccc(N2CCN(S(=O)(=O)c3ccc(-c4cnc(C5CC5)o4)cc3)CC2)cc1 | -1.95 |
| COc1cccc(-c2nnc(SCC(=O)N3CCCc4ccccc43)o2)c1 | -11.9 |
